In publication PMC4336329 (PLoS ONE, 2015):
The campaign covered roughly 310,000 compounds. About 14,000 (4.5%) showed an effect of 50% or more. The effect is printed as a negative number. Some of the results follow.

molecular target: human ether-à-go-go-related gene (hERG) potassium channel (human, UniProt Q12809); assay: primary screen, population patch clamp on CHO cells stably expressing hERG
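Also: peak tail current of the secondary pulse compared with the same well before compound.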

Chain of human ether-à-go-go-related gene (hERG) potassium channel (Q12809 whole entry, looked up): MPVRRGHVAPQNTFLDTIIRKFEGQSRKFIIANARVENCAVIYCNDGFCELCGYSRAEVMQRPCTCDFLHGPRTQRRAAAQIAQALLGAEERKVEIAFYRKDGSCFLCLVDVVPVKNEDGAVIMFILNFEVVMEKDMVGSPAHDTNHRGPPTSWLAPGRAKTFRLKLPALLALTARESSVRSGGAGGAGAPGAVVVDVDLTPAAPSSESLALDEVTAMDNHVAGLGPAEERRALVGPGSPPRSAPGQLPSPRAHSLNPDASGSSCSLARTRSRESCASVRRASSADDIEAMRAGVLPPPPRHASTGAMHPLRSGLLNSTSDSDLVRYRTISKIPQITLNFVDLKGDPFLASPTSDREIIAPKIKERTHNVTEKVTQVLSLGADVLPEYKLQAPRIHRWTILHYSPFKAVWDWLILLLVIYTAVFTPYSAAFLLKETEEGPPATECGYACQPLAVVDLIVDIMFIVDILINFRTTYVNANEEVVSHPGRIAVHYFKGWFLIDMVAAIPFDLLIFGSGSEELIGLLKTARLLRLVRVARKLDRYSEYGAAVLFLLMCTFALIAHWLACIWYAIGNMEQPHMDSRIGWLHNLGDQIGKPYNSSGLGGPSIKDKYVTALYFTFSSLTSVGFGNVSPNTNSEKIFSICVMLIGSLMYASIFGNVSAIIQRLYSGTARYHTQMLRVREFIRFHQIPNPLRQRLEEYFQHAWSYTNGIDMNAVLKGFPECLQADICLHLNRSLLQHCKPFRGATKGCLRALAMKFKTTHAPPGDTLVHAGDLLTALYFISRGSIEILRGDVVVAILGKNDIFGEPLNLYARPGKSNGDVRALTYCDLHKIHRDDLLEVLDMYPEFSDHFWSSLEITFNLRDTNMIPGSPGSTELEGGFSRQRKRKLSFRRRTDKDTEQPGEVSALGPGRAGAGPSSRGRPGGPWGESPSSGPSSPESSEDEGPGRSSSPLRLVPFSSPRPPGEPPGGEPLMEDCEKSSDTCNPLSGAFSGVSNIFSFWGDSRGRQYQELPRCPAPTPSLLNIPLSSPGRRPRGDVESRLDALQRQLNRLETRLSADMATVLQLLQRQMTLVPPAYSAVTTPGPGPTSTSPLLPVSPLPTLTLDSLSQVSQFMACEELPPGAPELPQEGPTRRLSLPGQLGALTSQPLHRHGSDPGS

SMILES	hERG current change (%, negative = inhibition) at 10uM
CN(CCc1ccccn1)C(=O)CCC1CCCN(C(=O)c2ccc3c(c2)OCCO3)C1 (stereo not shown)	23.7%
Cc1cc(C)c(C)c(S(=O)(=O)N2CCN(C(=O)c3cc(=O)[nH]c4ccccc34)CC2)c1C	-27.5%
COc1ccc(C(=O)Nc2c3c(nn2C(C)(C)C)CS(=O)(=O)C3)cc1OC	13.1%
N#CC/C(N)=N/Nc1nc2ccccc2nc1Cc1ccccc1	6.93%
O=C(NC1CCCC1)c1cccnc1N1CCCCCC1	-3.7%
COc1cccc(C(c2c(C)[nH]n(-c3ccccc3)c2=O)c2c(C)[nH]n(-c3ccccc3)c2=O)c1O	-4.28%
COc1ccc(NS(=O)(=O)c2cn(C)cn2)cc1Cl	19.3%
COc1ccc(-c2cc(C(=O)NCc3cccs3)no2)cc1	7.1%
Cc1ccc(C)c(NC(=O)CN(C)C(=O)C2CCN(C(=O)Nc3ccccc3)CC2)c1	-1.27%
COCCOC(=O)c1c(C)oc2ccc(OS(C)(=O)=O)cc12	6.36%
CC1CCC/C(=C\Nc2ccc(C(=O)O)cc2)C1=O (stereo not shown)	13.2%
CCOC(=O)c1nnc(-c2ccccc2)[nH]c1=O	3.44%
CCN(CC)C(=O)CSc1nnc(COc2cccc(C)c2)n1C	7.56%
CC(=O)Nc1ccc(S(=O)(=O)NCC(=O)OCC(=O)N2CCCc3ccccc32)cc1	4.4%
CCOC(=O)CSc1[nH]c2cc(OC)ccc2c1[N+](=O)[O-]	2.4%
O=C(CCN1C(=O)/C(=C/c2ccc(F)cc2)SC1=S)NC1C=CS(=O)(=O)C1 (stereo not shown)	-15.2%
CCN(CC)S(=O)(=O)c1ccc2[nH]cc(C(=O)NCCc3ccc(OC)c(OC)c3)c(=O)c2c1	15%
CCOC(=O)N1CCN(c2ccc(S(=O)(=O)N3CCC(C)CC3)cc2[N+](=O)[O-])CC1	-32.7%
COc1cc(CN2CCN(Cc3ccc([N+](=O)[O-])cc3)CC2)c([N+](=O)[O-])cc1OC.O=C(O)C(=O)O	-68.2%
Cc1ccc(C)c(N2CCN(C(=O)CCC(=O)Nc3nnc(CC(C)C)s3)CC2)c1	17.2%
Cc1ccc(-n2ncc3c2CC(C)(C)CC3NC(=O)Cc2c(C)noc2C)cc1 (stereo not shown)	-25.5%
CC(=O)Nc1ccc(OC(=O)COc2ccc(Br)cc2)cc1	6.16%

SMILES	hERG current change (%, negative = inhibition) at 10uM
O=[N+]([O-])c1cc(Cl)ccc1N1CCOCC1	26.1%
O=C(NNC(=O)c1ccc([N+](=O)[O-])cc1Cl)c1ccncc1	-13.4%
O=C(Nc1ccc(F)cc1)c1ccc(S(=O)(=O)N2CCCC2)cc1	2.81%
CCOC(=O)N1CCN(c2cc(NCCC(=O)O)c3c4c(onc24)-c2ccccc2C3=O)CC1	-4.05%
CCN(CC)S(=O)(=O)c1ccc(N2CCOCC2)c(NC(=O)C2CSC3(C)CCC(=O)N23)c1 (stereo not shown)	-30.7%
NC(=O)CCN(C(=O)c1cccc(S(=O)(=O)N2CCc3ccccc32)c1)c1ccccc1	-29.5%
CSC1=N/C(=C\c2ccc(C)cc2)C(=O)S1	-3.52%
COc1ccc([N+](=O)[O-])cc1C(=O)NC1CCN(Cc2ccccc2)CC1.Cl.O	-55.3%
CCOC(=O)NC(=O)c1cn(-c2ccc(OC)cc2)c(=O)[nH]c1=O	19.7%
O=C(CSCc1c(Cl)cccc1Cl)Nc1ccccc1-c1ccccc1	-5.25%
O=C(NCc1nc2ccccc2[nH]1)C1CCCCC1	12.4%
COc1ccccc1NC(=O)C1=C(C)NC(=O)NC1c1ccco1 (stereo not shown)	-15%
NS(=O)(=O)c1ccc(NC(=O)c2ccc3c(c2)CCN3S(=O)(=O)c2ccccc2)cc1	17.2%
COc1ccc(Nc2nc3ccccc3n2C)cc1	11.3%
CC(=O)Nc1ccc(S(=O)(=O)N(C)Cc2ccccc2)cc1	-12.7%
CCN1CCN(c2nc(Nc3cccc(OC)c3)nc(N)c2[N+](=O)[O-])CC1	-73.3%
COc1ccc(NC(=O)CN(C)C(=O)Cc2c(C)nc3ccccc3c2C)cc1	-46.1%
Cc1cc(C)c2c(n1)sc1c(=O)n(CC(=O)c3ccccc3)cnc12	-1.31%
C/C(Cl)=C/CSc1nnc2n(N)c(=O)c3ccccc3n12	-37.6%
Cc1cc(C)c([C@@H]2C[C@H]3CN(C4CCCC4)C(=O)[C@]34CCCN24)c(-n2cccn2)c1	-80.7%
Cc1ccc(C(=O)Nc2ccc(CN3CCS(=O)(=O)CC3)cc2)cc1C	5.47%
CCOCCCNC(=O)c1cc2sc(Cl)cc2n1CC	-19%

SMILES	hERG current change (%, negative = inhibition) at 10uM
CCN(CC)C(=O)CSc1nc2ccccc2c(=O)n1CCC(=O)NCc1ccc(F)cc1	-23.4%
O=C(N/N=C/C1CC=CCC1)c1cc(Br)ccc1O (stereo not shown)	16.5%
COc1ccc(N(CC(=O)NCc2cccc(OC)c2)S(=O)(=O)c2c(C)noc2C)cc1	-41.1%
Cc1ccc(-c2cc(=O)c3cc(F)ccc3[nH]2)cc1	7.02%
COc1ccc(C(=O)NC(=S)Nc2ccc(NC(=O)c3ccco3)cc2)cc1[N+](=O)[O-]	15.8%
O=C(/C=C/Nc1cccc([N+](=O)[O-])c1)c1ccco1	2.26%
CCN(CC)c1ccc(C2Nc3cccc4cccc(c34)N2)cc1	4.92%
CCN1/C(=C2\C(=O)N(C)C(=S)N2C)C=Cc2cc(OC)ccc21	-11.8%
COC(=O)c1ccccc1NCc1cc(=O)oc2cc(O)c(O)cc12	9.61%
Cc1ccnc(N2CCC(C(=O)Nc3cccc(C(F)(F)F)c3)CC2)n1	-22%
Cc1cccc(C)c1NC(=O)C1(NC(=O)Cn2cccc([N+](=O)[O-])c2=O)CCCCC1	5.49%
CCOc1ccccc1OCCC(=O)NNC(=O)Cn1nc(C)cc1C	0.717%
COC(=O)Cc1csc(/N=C/c2c(O)n(-c3cccc(C(F)(F)F)c3)c(=O)c3ccccc23)n1	18.6%
COC(=O)c1cccc(S(=O)(=O)N2CCC(NC(=O)NC34CC5CC(CC(C5)C3)C4)CC2)c1	4.44%
CCNC(=O)/C=C/c1ccccc1[N+](=O)[O-]	8.82%
c1cncc(-c2noc(C34CC5CC(CC(C5)C3)C4)n2)c1	-0.918%
COc1ccc(C)cc1NC(=O)CO/N=C(\N)CC(=O)NC1CCCCC1	-1.54%
CSCCC(NC(=O)c1ccc(Cl)cc1Cl)C(=O)NCc1ccccn1 (stereo not shown)	-8.59%
Cl.O=S(=O)(CCc1ccncc1)c1ccc(Cl)cc1	-6.1%
O=C(COc1ccc(Br)cc1)NCC1COc2ccccc2O1 (stereo not shown)	-20.9%
CCN(CC)c1ccc(C(=O)NNC(=O)CNC(=O)c2cccs2)cc1	1.25%
Cc1ccc(NC(=O)CN2CCc3cc4c(cc3C2)OCCCO4)cc1	15.4%

SMILES	hERG current change (%, negative = inhibition) at 10uM
COC(=O)c1sccc1NC(=O)c1cnc2cc(C)nn2c1C	22.4%
CCOCCCNC(=O)C1c2cc(OC)c(OC)cc2C(=O)N2CCCCC12 (stereo not shown)	-4.73%
CCc1nnc(NC(=O)C2=CCN(S(=O)(=O)c3ccc(F)cc3)CC2)s1	3.92%
O=c1[nH]c(/C(Cl)=C/c2cccc(C(F)(F)F)c2)nc2cc(Cl)ccc12	-8.65%
CC1(C)Cc2c(cnn2-c2ccccc2)C(=O)/C1=N\NC(=O)c1ccncc1	5.31%
COc1ccc(NC(=S)N2CCC(c3nc4ccccc4o3)CC2)c(OC)c1	-19.2%
Nc1nc(-c2ccc3c(c2)CCCC3)c(CC(=O)O)s1	15.7%
COc1cc(OC)cc(C(=O)Nc2cccc(-c3ccc(N4CCOCC4)nn3)c2)c1	14.5%
COc1ccc(N2CCN(C(=O)CCc3ccccc3)CC2)cc1	-9.27%
O=C(NCC1CCCO1)c1cccc(NS(=O)(=O)c2ccccc2)c1 (stereo not shown)	19.8%
CCCCOC1CC(c2ccc(OCc3ccc(OC)cc3)c(OC)c2)N(C)O1 (stereo not shown)	3.47%
CN(C)c1ccc(/C=C2\C(=O)NC(=O)N(Cc3ccc(F)cc3)C2=O)cc1	-7.4%
CCOC(=O)N1CCC(NC(=O)c2ccc3c(c2)N=C(CC)c2ccccc2S3)CC1	9.68%
COc1cccc(N2C(=O)CC(NNC(=O)c3cccs3)C2=O)c1 (stereo not shown)	-35.1%
CCCc1nnc(NC(=O)c2c(O)c3c([nH]c2=O)CCCC3)s1	-2.7%
Cc1ccc(NC(=O)Nc2cc(-c3ccccc3)nn2C)cc1Cl	18.2%
COc1cc(/C=N/n2c(C3CCCCC3)n[nH]c2=S)ccc1O	16.9%
CNC(=O)Nc1cc(C)nn1C	23.7%
CCn1cc(C(=O)O)c(=O)c2cc(F)c(N3CCN(C(=S)NC(=O)c4cc(OC)cc(OC)c4)CC3)cc21	9.16%
